# In all, about 310,000 compounds went through this assay and about 2,200 (0.71%) showed an effect of 50% or more. The effect is printed as a negative number. The list shows a part of the results.
# Molecular target: human ether-à-go-go-related gene (hERG) potassium channel (human, UniProt Q12809)
# Assay: primary screen, population patch clamp on CHO cells stably expressing hERG
# human ether-à-go-go-related gene (hERG) potassium channel, sequence (Q12809 whole entry, looked up): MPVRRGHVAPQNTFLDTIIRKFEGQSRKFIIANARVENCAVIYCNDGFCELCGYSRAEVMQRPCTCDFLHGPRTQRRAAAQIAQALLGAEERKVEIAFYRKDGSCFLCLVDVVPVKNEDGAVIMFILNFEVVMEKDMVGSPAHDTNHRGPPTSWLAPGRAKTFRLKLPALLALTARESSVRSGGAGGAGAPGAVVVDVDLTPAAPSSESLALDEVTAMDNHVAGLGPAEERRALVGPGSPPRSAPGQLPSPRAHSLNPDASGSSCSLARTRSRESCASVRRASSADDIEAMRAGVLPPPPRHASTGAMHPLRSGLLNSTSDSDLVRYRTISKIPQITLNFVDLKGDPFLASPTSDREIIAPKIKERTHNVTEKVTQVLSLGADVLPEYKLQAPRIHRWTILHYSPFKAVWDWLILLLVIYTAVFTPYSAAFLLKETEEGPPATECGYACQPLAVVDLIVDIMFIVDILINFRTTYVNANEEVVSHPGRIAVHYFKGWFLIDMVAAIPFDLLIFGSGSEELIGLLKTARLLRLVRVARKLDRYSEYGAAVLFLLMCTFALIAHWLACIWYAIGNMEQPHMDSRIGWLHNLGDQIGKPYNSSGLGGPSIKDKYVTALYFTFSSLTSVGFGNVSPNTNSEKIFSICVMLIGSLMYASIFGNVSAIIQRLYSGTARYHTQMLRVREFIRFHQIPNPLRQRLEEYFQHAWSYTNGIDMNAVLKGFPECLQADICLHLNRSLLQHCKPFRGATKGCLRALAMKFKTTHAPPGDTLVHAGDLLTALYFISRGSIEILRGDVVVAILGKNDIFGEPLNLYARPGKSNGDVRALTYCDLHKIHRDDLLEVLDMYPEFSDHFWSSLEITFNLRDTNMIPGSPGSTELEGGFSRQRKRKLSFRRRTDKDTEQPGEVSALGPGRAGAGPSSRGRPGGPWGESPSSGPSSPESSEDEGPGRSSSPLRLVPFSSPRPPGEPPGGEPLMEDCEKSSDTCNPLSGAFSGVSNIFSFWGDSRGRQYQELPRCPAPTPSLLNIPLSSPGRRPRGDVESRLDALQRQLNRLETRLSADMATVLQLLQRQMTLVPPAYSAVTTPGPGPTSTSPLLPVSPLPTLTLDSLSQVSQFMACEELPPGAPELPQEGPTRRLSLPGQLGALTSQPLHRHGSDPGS
row,SMILES,"hERG current change (%, negative = inhibition) at 1uM [%]"
1,Cc1ccc(C)c(N2CCN(C(=O)CCc3nc4ccccc4[nH]3)CC2)c1,11.5
2,O=C(c1cc(COc2ccc(F)cc2F)on1)N1CCOCC1,14.2
3,Cc1ccc(C(=O)NC(N2CCCC2)C(Cl)(Cl)Cl)cc1 (stereo not shown),4.37
4,CC[C@H](C)C(N)c1cn(C(CCCN=C(N)N)C(=O)N2CCNCC2)nn1 (stereo partly shown),11.4
5,Cc1ccc(/C(O)=C2\C(=O)C(=O)N(CCN(C)C)C2c2ccccc2F)cc1 (stereo not shown),-6.65
6,COc1ccc(NS(=O)(=O)c2cc(NC(=O)c3ccc(C)o3)ccc2N2CCCCC2)cc1,9
7,CC(=O)Nc1ccc(OC(=O)c2cc([N+](=O)[O-])ccc2Cl)cc1,2.21
8,C=C(C)C1CC=C(C)/C(=N/NC(=O)c2ccc(NC(=O)CC)cc2)C1 (stereo not shown),-7.98
9,O=C(c1ccccc1)C1NC1c1ccccc1 (stereo not shown),11.3
10,Cc1cc(C)cc(NC(=O)[C@@H](NC(=O)c2ccco2)C(C)C)c1,11.1
11,Cc1coc2cc3oc(=O)c(CCC(=O)N4C[C@H]5C[C@@H](C4)c4cccc(=O)n4C5)c(C)c3cc12,-16.8
12,N/C(=N\OC(=O)c1ccccc1Cl)c1ccc(Cl)cc1,-5.66
13,Cc1cc(C)nc(NC(=O)c2ccc(OC(C)C)cc2)n1,11.8
14,CC1CCCCC1NC(=O)COC(=O)c1ccc(S(=O)(=O)NCc2ccco2)cc1 (stereo not shown),0.0932
15,CC(=O)c1ccccc1OC(=O)c1ccc(-c2ccccc2)cc1,9.87
16,Cc1ccc(N(CC(=O)N2CCc3ccccc3C2)S(C)(=O)=O)cc1,1.69
17,Cc1ccc(C(=O)OC(C)C(=O)Nc2ccc(Cl)cn2)s1 (stereo not shown),7.21
18,CCCCSCCCNC(=O)Nc1cccc(OC)c1,13.1
19,COc1ccc(NC(=O)c2c(N)no[n+]2[O-])c(OC)c1,4.59
20,Cn1c(=S)[nH]c2sc3c(c2c1=O)CCC(C(C)(C)C)C3 (stereo not shown),13.9
21,O=C1Cc2cc(S(=O)(=O)N3CCCCC3)ccc2N1,5.78
22,CC(=O)NCCc1nc2cc(NC(=O)c3ccccc3Cl)ccc2n1C,12.1
23,Cn1cc(S(=O)(=O)CC(=O)N2CCc3ccccc32)c2ccccc21,3.32
24,Cc1csc(NC(=O)CSc2nnc(CCNC(=O)c3ccc(Cl)c(Cl)c3)n2C)n1,2.76
25,COc1ccc2[nH]cc(CCn3ccc(O)c(C/C=C/c4ccccc4)c3=O)c2c1,6.04
